From PubChem BioAssay AID624170 (National Center for Advancing Translational Sciences (NCATS), 2012)
Hit rate of the full screen: of about 410,000 compounds, about 850 (0.21%) were called active. Inconclusive results, whose numbers are uncertain, are shown with a selection of clear calls. Calls follow the shape of the dose curve; as a rule, active = well fitted inhibition curve with a large enough effect; inconclusive = small, poorly fitted or top-dose-only effect, or another doubt; inactive = no such curve, though single readings can be large or run the other way. No potency is given beside an inconclusive call; the fits are too rough.

The compounds below were run against Glutaminase kidney isoform, mitochondrial (Homo sapiens) (UniProt O94925) (assay: qHTS for Inhibitors of Glutaminase (GLS)). Conditions: GLS enzymatic activity, qHTS titration; series mostly up to 45.5 µM; activity change, negative = inhibition: at the top concentration.
In short: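 hKGA in 45 mM KH2PO4 pH 8.2, 0.02% Tween-20 with pin-transferred compounds; 1 mM L-glutamine (stock) plus glutamate oxidase/HRP/Amplex Red coupling added. Fluorescence read initially and after 30 min at RT.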
% is scaled to controls: 0 for no effect and ±100 for the full control effect; potency is read from the fitted curve at half-maximal effect; tags tell the direction and shape of the fitted curve.

Chain of UniProt O94925 (O94925 whole entry, looked up, canonical isoform): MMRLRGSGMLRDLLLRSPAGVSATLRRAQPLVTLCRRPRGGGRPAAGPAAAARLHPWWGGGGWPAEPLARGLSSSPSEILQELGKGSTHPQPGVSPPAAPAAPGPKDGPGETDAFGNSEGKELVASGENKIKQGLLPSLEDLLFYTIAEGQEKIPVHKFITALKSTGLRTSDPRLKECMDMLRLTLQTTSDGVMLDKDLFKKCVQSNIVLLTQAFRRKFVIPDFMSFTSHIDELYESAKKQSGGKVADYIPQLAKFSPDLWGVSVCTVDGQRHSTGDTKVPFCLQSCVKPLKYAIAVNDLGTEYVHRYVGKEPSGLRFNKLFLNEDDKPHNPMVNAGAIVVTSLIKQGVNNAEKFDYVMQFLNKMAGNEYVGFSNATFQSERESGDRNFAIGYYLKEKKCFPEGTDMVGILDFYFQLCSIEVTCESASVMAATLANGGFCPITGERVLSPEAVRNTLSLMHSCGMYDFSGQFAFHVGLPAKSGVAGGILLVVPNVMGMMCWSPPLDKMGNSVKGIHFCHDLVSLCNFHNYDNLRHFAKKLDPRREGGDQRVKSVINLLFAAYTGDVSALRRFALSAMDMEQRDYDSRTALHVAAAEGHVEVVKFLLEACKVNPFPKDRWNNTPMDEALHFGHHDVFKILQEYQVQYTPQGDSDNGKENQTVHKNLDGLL

Compound | Potency | activity change, negative = inhibition
S=c1nc(C23CC4CC(CC(C4)C2)C3)[nH][nH]1 | inconclusive [inhibitor, partial curve, poor fit] | –
c1ccc(-c2nn3c(Cn4cnc5ccccc54)nnc3s2)cc1 | – | inactive: -26.2%
Cc1ccc2c(c1)C(c1ccccc1)N(C(=O)c1ccc(S(=O)(=O)N3CCOCC3)cc1)CC(=O)N2 (stereo not given) | inconclusive [inhibitor, partial curve] | –
Cc1ccc(C(=O)CSc2nnc(-c3ccco3)n2Cc2ccccc2)cc1 | inconclusive [inhibitor, single point] | –
O=C(/C=C/c1ccc(O)c(O)c1)OC1C(O)CC(OC(=O)/C=C/c2ccc(O)c(O)c2)(C(=O)O)CC1O (stereo not given) | inconclusive [inhibitor, full curve, poor fit] | –
COc1cc(CN2CCC(C(=O)N3CCN(c4ccccc4F)CC3)CC2)cc(OC)c1O | inconclusive [inhibitor, single point] | –
O=c1nc2sc3ccccc3n2c(=O)n1-c1ccc(Cl)cc1 | inconclusive [inhibitor, single point] | –
Nc1c(N=Nc2ccc(-c3ccc(N=Nc4cc(S(=O)(=O)O)c5ccccc5c4N)cc3)cc2)cc(S(=O)(=O)O)c2ccccc12 | inconclusive [inhibitor, single point] | –
COc1ccc(/C=C2\SC(=S)N(CCC(=O)Nc3ccc(C(=O)O)cc3)C2=O)cc1OC | inconclusive [inhibitor, single point] | –
Cc1cc(Br)cc2c1N(Cc1ccccc1OC(C)C)C(=O)C2=O | inconclusive [inhibitor, single point] | –
CCOc1cc(/C=C2\C(=N)N3N=CSC3=NC2=O)ccc1OS(=O)(=O)c1ccccc1 | – | inactive: -10.8%
O=C(/C=C/c1ccccc1)Nc1nc2n(n1)C(c1ccc(F)cc1)C=C(c1ccccc1)N2 (stereo not given) | inconclusive [inhibitor, single point] | –
COC(=O)c1ccc(C2Nc3cccc4cccc(c34)N2)cc1 | inconclusive [inhibitor, partial curve] | –
COc1ccc2c(c1)sc1nc(-c3ccccc3)cn12 | – | inactive: -1.16%
COc1ccc(-n2c(=O)c3c4c(sc3n(Cc3ccc(C(C)(C)C)cc3)c2=O)CCC4)c(OC)c1 | – | inactive: 13%
O=C(Nc1cccc(Cl)c1)N1CCCC1 | inconclusive [inhibitor, single point] | –
CCOc1cc(/C=C2\NC(=S)N(C)C2=O)ccc1OCc1ccc(C(=O)O)cc1 | – | inactive: 2.41%
CN1Cc2sc(NC(=S)NC(=O)c3ccccc3)c(C#N)c2CC1(C)C | inconclusive [inhibitor, single point] | –
CC(C)CC(C(=O)O)N1C(=O)C2C3CC(C2C1=O)C1C(c2ccccc2)c2sc(=O)[nH]c2SC31 (stereo not given) | inconclusive [inhibitor, single point] | –
Cc1ccc(NCN2C(=O)C3C4C=CC(C4)C3C2=O)cc1 (stereo not given) | inconclusive [inhibitor, single point] | –
COc1cc(/C=C2\SC(=O)N(c3ccc(Cl)cc3)C2=O)cc([N+](=O)[O-])c1O | inconclusive [inhibitor, single point] | –
Cc1cc(=O)oc2c(O)c(O)ccc12 | inconclusive [inhibitor, single point] | –
COc1ccc(-c2cc(C(=O)Nc3c(Cl)cc(Cl)cc3Cl)c3ccccc3n2)cc1OC | – | inactive: 1.51%
COc1ccc(-c2csc(CCN3N=C(C)CC3=O)n2)cc1 | inconclusive [inhibitor, single point] | –

Compound | Potency | activity change, negative = inhibition
CCOc1ccc(C(C)NC(=S)NCc2ccc(F)cc2)cc1 (stereo not given) | – | inactive: 4.4%
O=C(NNS(=O)(=O)c1ccc(F)cc1)c1cc2ccccc2cc1O | inconclusive [inhibitor, single point] | –
CCOC(=O)c1sc(NC(=O)CSc2nc(C)cc(-c3ccccc3)n2)c(C#N)c1C | – | inactive: 5.16%
CCOc1ccccc1NC(=O)COC(=O)CN(C)S(=O)(=O)c1ccc(C)cc1 | inconclusive [inhibitor, single point] | –
O=C(CN(C(=O)CCC(=O)Nc1nccs1)c1cccc(C(F)(F)F)c1)NCC1CCCO1 (stereo not given) | – | inactive: -14.9%
COC(=O)c1cc2ccccc2oc1=O | inconclusive [inhibitor, single point] | –
COC(=O)c1ccc2nc(-c3ccc(F)cc3)c(Cc3ccc(OC)cc3C)n2c1 | inconclusive [inhibitor, partial curve, poor fit] | –
CSc1ccccc1NC(=S)N/N=C/c1cccn1Cc1ccc(F)cc1 | inconclusive [inhibitor, single point] | –
Cc1ccc2nc(SCC(=O)c3ccc(O)cc3O)[nH]c2c1 | – | inactive: 15.5%
Cn1c(CNc2ccc(O)cc2)nc2ccccc21 | – | inactive: 38.3%
Cc1ccc(NC(=O)CSc2nc(-c3ccco3)nc3cc(=O)[nH]n23)c(Cl)c1 | inconclusive [inhibitor, single point] | –
O=C(NCC1CCCO1)c1cccc(NC(=O)c2ccc(Br)cc2)c1 (stereo not given) | inconclusive [inhibitor, single point] | –
CN(C)S(=O)(=O)c1ccc(-c2csc(N/N=C/c3ccc(O)cc3)n2)cc1 | inconclusive [inhibitor, single point] | –
N#CCSc1ccccc1NC(=O)COc1ccc(-c2nnco2)cc1 | – | inactive: -1.24%
CCOC(=O)Cc1csc(N/N=C/c2ccc(Cl)cc2)n1 | inconclusive [inhibitor, single point] | –
COc1ccc(-n2cc3c(c2-c2cccc(Br)c2)c(=O)n(C)c(=O)n3C)cc1OC | – | inactive: 2.47%
O=c1[nH]c2c(s1)C(c1ccccc1)C1C3CCC(C3)C1S2 (stereo not given) | – | inactive: 2.4%
COc1ccc(NCc2ccc(OC)c(Cn3ccnc3)c2)c(OC)c1 | inconclusive [inhibitor, single point] | –
CC1=C(C(=O)Nc2ccccc2)C(c2ccccc2[N+](=O)[O-])NC(=O)N1 (stereo not given) | – | inactive: 11.4%
O=C(O)c1cccc(NC(=O)c2cccc(S(=O)(=O)Nc3cccc(C(=O)O)c3)c2)c1 | – | inactive: -19.3%
c1ccn2cc(-c3ccc4c(c3)OCO4)cc2c1 | inconclusive [inhibitor, partial curve, poor fit] | –
COc1ccc(CNC(=O)Cc2cn(C)c3ccccc23)c(OC)c1 | inconclusive [inhibitor, full curve] | –
Cc1cc(C)c(NC(=O)CSC2=Nc3ccccc3C3=NC(CC(=O)NCc4cccs4)C(=O)N23)c(C)c1 (stereo not given) | active: 11.2 µM | –
CCOC(=O)C1CCCN(C(=S)Nc2ccc(Nc3ccccc3)cc2)C1 (stereo not given) | inconclusive [inhibitor, single point] | –

Compound | Potency | activity change, negative = inhibition
Cc1ccc(S(=O)(=O)Nc2ccc3cn[nH]c3c2)cc1 | – | inactive: 0.126%
COc1ccccc1Cn1c(=S)[nH]c2ccc(F)cc2c1=O | inconclusive [inhibitor, partial curve, poor fit] | –
Cc1ccc(NC(=S)N/N=C/c2cccn2Cc2ccccc2F)cc1 | inconclusive [inhibitor, partial curve, poor fit] | –
COc1cc(/C=N/NC(=O)Cn2cnc3ccccc3c2=O)ccc1O | active: 20 µM | –
CCOC(=O)C1=C(SCC)c2cc3c(n2C1=O)CCCC3 | – | inactive: -8.18%
COc1ccc(C(=O)CCc2ccccc2O)c(OC)c1 | inconclusive [inhibitor, single point] | –
COCCNC(=O)C1(C)CCCN(C(=O)COc2ccccc2)C1 (stereo not given) | – | inactive: 4.37%
O=C(c1ccco1)c1coc2c1cc(O)c1ccccc12 | – | inactive: 15.4%
Oc1ccc(NCc2ccccc2OCc2ccccc2)cc1 | inconclusive [inhibitor, single point] | –
COc1ccccc1N=Cc1nc(-c2ccccc2)oc1OC(C)=O | – | inactive: -3.78%
CCN1CCN(C(=O)c2nn(-c3ccc(OC)cc3)c(=O)c3c2c2ccccc2n3C)CC1 | inconclusive [inhibitor, single point] | –
COc1cc2c(cc1OC)C(c1ccccc1)N(C(=O)c1ccco1)CC2 (stereo not given) | – | inactive: -2.11%
O=C(NCc1cccs1)c1cccc2c(-c3cccnc3)coc12 | inconclusive [inhibitor, single point] | –
Cc1cccc(-n2nc3c(c2NC(=O)c2ccco2)CSC3)c1C | inconclusive [inhibitor, single point] | –
Clc1ccccc1-c1nnc2sc(CCc3ccccc3)nn12 | inconclusive [inhibitor, partial curve, poor fit] | –
CCOC(=O)c1c(NC(=O)c2ccc(S(=O)(=O)N(CC(C)C)CC(C)C)cc2)sc2c1CCN(CC)C2 | inconclusive [inhibitor, single point] | –
Oc1c(Cl)cc(Cl)cc1C=Nc1cc(C(F)(F)F)ccc1N1CCc2ccccc2C1 | inconclusive [inhibitor, single point] | –
Cc1ccc(C(=O)NCCCN2CCOCC2)cc1S(=O)(=O)N1CCCCC1 | – | inactive: 1.95%
COc1ccc(/C=N/Nc2cc(C)nc3ccc(OC)cc23)c(OC)c1 | inconclusive [inhibitor, single point] | –
CCCCC(=O)NC(c1ccco1)c1cc(Cl)c2cccnc2c1O (stereo not given) | inconclusive [inhibitor, single point] | –
O=C(CSCc1ccc(F)cc1)NCc1ccco1 | – | inactive: 0.52%
CCOc1ccc(CCNC(=O)c2ccc3c(=O)[nH]c4c(C(=O)NC(C)C)sc(=S)n4c3c2)cc1 | inconclusive [inhibitor, single point] | –
